{"source": "the supplement of paper PMC8728848", "test_in_all_cases": "glycan array binding signal (z-score within array); higher = stronger binding", "conditions_in_all_cases": "glycan notation: IUPAC condensed, linker removed", "key": {"[1]": {"molecular_target": "Man(a1-3)[Man(a1-6)]Man(a1-6)[Man(a1-3)]Man", "method_in_brief": "(§1)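 Columns mapping to the same glycan were averaged after glycan names were converted to IUPAC-condensed notation. The data come from 3228 arrays in the Consortium for Functional Glycomics database, limited to those with an available protein sequence. Binding is reported as a within-array Z-score averaged across arrays of one protein sequence and across linkers.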"}, "[2]": {"molecular_target": "Man(a1-3)[Man(a1-6)]Man(a1-6)[Man(a1-3)]Man(b1-4)GlcNAc(b1-4)GlcNAc", "method_in_brief": "as §1"}, "[3]": {"molecular_target": "Man(a1-3)[Man(a1-6)]Man(b1-4)GlcNAc(b1-4)GlcNAc", "method_in_brief": "as §1"}, "[4]": {"molecular_target": "Man(a1-3)[Man(a1-6)]Man(b1-4)GlcNAc(b1-4)[Fuc(a1-6)]GlcNAc", "method_in_brief": "as §1"}, "[5]": {"molecular_target": "Man(a1-6)Man", "method_in_brief": "as §1"}, "[6]": {"molecular_target": "Man(b1-4)GlcNAc", "method_in_brief": "as §1"}, "[7]": {"molecular_target": "MurNAc(b1-4)GlcNAc", "method_in_brief": "as §1"}, "[8]": {"molecular_target": "Neu5Ac(a2-3)Gal", "method_in_brief": "as §1"}, "[9]": {"molecular_target": "Neu5Ac(a2-3)Gal(b1-3)GalNAc", "method_in_brief": "as §1"}, "[10]": {"molecular_target": "Neu5Ac(a2-3)Gal(b1-3)GalNAc(b1-3)Gal(a1-4)Gal(b1-4)Glc", "method_in_brief": "as §1"}, "[11]": {"molecular_target": "Neu5Ac(a2-3)Gal(b1-3)GalNAc(b1-4)[Neu5Ac(a2-3)]Gal(b1-4)Glc", "method_in_brief": "as §1"}, "[12]": {"molecular_target": "Neu5Ac(a2-3)Gal(b1-3)GalNAc(b1-4)[Neu5Ac(a2-8)Neu5Ac(a2-3)]Gal(b1-4)Glc", "method_in_brief": "as §1"}, "[13]": {"molecular_target": "Neu5Ac(a2-3)Gal(b1-3)GalNAc6S", "method_in_brief": "as §1"}, "[14]": {"molecular_target": "Neu5Ac(a2-3)Gal(b1-3)GlcNAc", "method_in_brief": "as §1"}, "[15]": {"molecular_target": "Neu5Ac(a2-3)Gal(b1-3)GlcNAc(b1-2)Man", "method_in_brief": "as §1"}, "[16]": {"molecular_target": "Neu5Ac(a2-3)Gal(b1-3)GlcNAc(b1-2)Man(a1-3)[GlcNAc(b1-4)][Neu5Ac(a2-3)Gal(b1-3)GlcNAc(b1-2)Man(a1-6)]Man(b1-4)GlcNAc(b1-4)GlcNAc", "method_in_brief": "as §1"}, "[17]": {"molecular_target": "Neu5Ac(a2-3)Gal(b1-3)GlcNAc(b1-2)Man(a1-3)[Neu5Ac(a2-3)Gal(b1-3)GlcNAc(b1-2)Man(a1-6)]Man(b1-4)GlcNAc(b1-4)GlcNAc", "method_in_brief": "as §1"}, "[18]": {"molecular_target": "Neu5Ac(a2-3)Gal(b1-3)GlcNAc(b1-3)Gal(b1-3)GlcNAc", "method_in_brief": "as §1"}, "[19]": {"molecular_target": "Neu5Ac(a2-3)Gal(b1-3)GlcNAc(b1-3)Gal(b1-4)GlcNAc", "method_in_brief": "as §1"}, "[20]": {"molecular_target": "Neu5Ac(a2-3)Gal(b1-3)GlcNAc(b1-3)GalNAc", "method_in_brief": "as §1"}, "[21]": {"molecular_target": "Neu5Ac(a2-3)Gal(b1-3)GlcNAc(b1-4)Gal(b1-4)Glc", "method_in_brief": "as §1"}, "[22]": {"molecular_target": "Neu5Ac(a2-3)Gal(b1-3)GlcNAc(b1-6)GalNAc", "method_in_brief": "as §1"}, "[23]": {"molecular_target": "Neu5Ac(a2-3)Gal(b1-3)GlcNAc6S", "method_in_brief": "as §1"}, "[24]": {"molecular_target": "Neu5Ac(a2-3)Gal(b1-3)[Fuc(a1-4)]GlcNAc", "method_in_brief": "as §1"}, "[25]": {"molecular_target": "Neu5Ac(a2-3)Gal(b1-3)[Fuc(a1-4)]GlcNAc(b1-3)Gal(b1-3)[Fuc(a1-4)]GlcNAc", "method_in_brief": "as §1"}, "[26]": {"molecular_target": "Neu5Ac(a2-3)Gal(b1-3)[Fuc(a1-4)]GlcNAc(b1-3)Gal(b1-4)[Fuc(a1-3)]GlcNAc", "method_in_brief": "as §1"}, "[27]": {"molecular_target": "Neu5Ac(a2-3)Gal(b1-3)[GlcNAc(b1-6)]GalNAc", "method_in_brief": "as §1"}, "[28]": {"molecular_target": "Neu5Ac(a2-3)Gal(b1-3)[Neu5Ac(a2-6)]GalNAc", "method_in_brief": "as §1"}, "[29]": {"molecular_target": "Neu5Ac(a2-3)Gal(b1-3)[Neu5Ac(a2-6)]GlcNAc(b1-3)[Fuc(a1-3)[Gal(b1-4)]GlcNAc(b1-6)]Gal(b1-4)Glc", "method_in_brief": "as §1"}, "[30]": {"molecular_target": "Neu5Ac(a2-3)Gal(b1-3)]Neu5Ac(a2-3)Gal(b1-4)]GlcNAc", "method_in_brief": "as §1"}, "[31]": {"molecular_target": "Neu5Ac(a2-3)Gal(b1-4)Glc", "method_in_brief": "as §1"}, "[32]": {"molecular_target": "Neu5Ac(a2-3)Gal(b1-4)GlcNAc", "method_in_brief": "as §1"}, "[33]": {"molecular_target": "Neu5Ac(a2-3)Gal(b1-4)GlcNAc(b1-2)Man", "method_in_brief": "as §1"}, "[34]": {"molecular_target": "Neu5Ac(a2-3)Gal(b1-4)GlcNAc(b1-2)Man(a1-3)[GlcNAc(b1-4)][Neu5Ac(a2-3)Gal(b1-4)GlcNAc(b1-2)Man(a1-6)]Man(b1-4)GlcNAc(b1-4)GlcNAc", "method_in_brief": "as §1"}, "[35]": {"molecular_target": "Neu5Ac(a2-3)Gal(b1-4)GlcNAc(b1-2)Man(a1-3)[Neu5Ac(a2-3)Gal(b1-4)GlcNAc(b1-2)Man(a1-6)]Man(b1-4)GlcNAc(b1-4)GlcNAc", "method_in_brief": "as §1"}, "[36]": {"molecular_target": "Neu5Ac(a2-3)Gal(b1-4)GlcNAc(b1-2)Man(a1-3)[Neu5Ac(a2-3)Gal(b1-4)GlcNAc(b1-2)Man(a1-6)]Man(b1-4)GlcNAc(b1-4)[Fuc(a1-6)]GlcNAc", "method_in_brief": "as §1"}, "[37]": {"molecular_target": "Neu5Ac(a2-3)Gal(b1-4)GlcNAc(b1-2)Man(a1-3)[Neu5Ac(a2-6)Gal(b1-4)GlcNAc(b1-2)Man(a1-6)]Man(b1-4)GlcNAc(b1-4)GlcNAc", "method_in_brief": "as §1"}, "[38]": {"molecular_target": "Neu5Ac(a2-3)Gal(b1-4)GlcNAc(b1-2)[Neu5Ac(a2-3)Gal(b1-4)GlcNAc(b1-4)]Man(a1-3)[GlcNAc(b1-4)][Neu5Ac(a2-3)Gal(b1-4)GlcNAc(b1-2)[Neu5Ac(a2-3)Gal(b1-4)GlcNAc(b1-6)]Man(a1-6)]Man(b1-4)GlcNAc(b1-4)GlcNAc", "method_in_brief": "as §1"}}, "note": "The list shows a part of the results."}
{"binder": "Cohesin-hMARCO (Homo sapiens) (protein) LDDLDAVRIKVDTVNAKPGDTVRIPVRFSGIPSKGIANCDFVYSYDPNVLEIIEIEPGDIIVDPNPDKSFDTAVYPDRKIIVFLFAEDSGTGAYAITKDGVFATIVAKVKEGAPNGLSVIKFVEVGGFANNDLVEQKTQFFDGGANVGDTTEPATPTTPVTTPTTTDDLDAASVRIVGSSNRGRAEVYYSGTWGTICDDEWQNSDAIVFCRMLGYSKGRALYKVGAGTGQIWLDNVQCRGTESTLWSCTKNSWGHHDCSHEEDAGVECSVHHHHHH", "values": [{"measurement": "glycan array binding signal (z-score)", "setting": "[1]", "result": -0.394}, {"measurement": "glycan array binding signal (z-score)", "setting": "[2]", "result": -0.579}, {"measurement": "glycan array binding signal (z-score)", "setting": "[3]", "result": -0.447}, {"measurement": "glycan array binding signal (z-score)", "setting": "[4]", "result": -0.571}, {"measurement": "glycan array binding signal (z-score)", "setting": "[5]", "result": 3.28}, {"measurement": "glycan array binding signal (z-score)", "setting": "[6]", "result": -0.552}, {"measurement": "glycan array binding signal (z-score)", "setting": "[7]", "result": -0.467}, {"measurement": "glycan array binding signal (z-score)", "setting": "[8]", "result": 0.136}, {"measurement": "glycan array binding signal (z-score)", "setting": "[9]", "result": -0.475}, {"measurement": "glycan array binding signal (z-score)", "setting": "[10]", "result": -0.29}, {"measurement": "glycan array binding signal (z-score)", "setting": "[11]", "result": -0.483}, {"measurement": "glycan array binding signal (z-score)", "setting": "[12]", "result": -0.362}, {"measurement": "glycan array binding signal (z-score)", "setting": "[13]", "result": 1.01}, {"measurement": "glycan array binding signal (z-score)", "setting": "[14]", "result": -0.443}, {"measurement": "glycan array binding signal (z-score)", "setting": "[15]", "result": -0.035}, {"measurement": "glycan array binding signal (z-score)", "setting": "[16]", "result": 0.063}, {"measurement": "glycan array binding signal (z-score)", "setting": "[17]", "result": -0.11}, {"measurement": "glycan array binding signal (z-score)", "setting": "[18]", "result": -0.356}, {"measurement": "glycan array binding signal (z-score)", "setting": "[19]", "result": -0.232}, {"measurement": "glycan array binding signal (z-score)", "setting": "[20]", "result": -0.171}, {"measurement": "glycan array binding signal (z-score)", "setting": "[21]", "result": -0.356}, {"measurement": "glycan array binding signal (z-score)", "setting": "[22]", "result": 0.337}, {"measurement": "glycan array binding signal (z-score)", "setting": "[23]", "result": 0.039}, {"measurement": "glycan array binding signal (z-score)", "setting": "[24]", "result": -0.569}, {"measurement": "glycan array binding signal (z-score)", "setting": "[25]", "result": -0.207}, {"measurement": "glycan array binding signal (z-score)", "setting": "[26]", "result": -0.491}, {"measurement": "glycan array binding signal (z-score)", "setting": "[27]", "result": -0.287}, {"measurement": "glycan array binding signal (z-score)", "setting": "[28]", "result": -0.255}, {"measurement": "glycan array binding signal (z-score)", "setting": "[29]", "result": -0.587}, {"measurement": "glycan array binding signal (z-score)", "setting": "[30]", "result": -0.303}, {"measurement": "glycan array binding signal (z-score)", "setting": "[31]", "result": -0.436}, {"measurement": "glycan array binding signal (z-score)", "setting": "[32]", "result": -0.448}, {"measurement": "glycan array binding signal (z-score)", "setting": "[33]", "result": 0.296}, {"measurement": "glycan array binding signal (z-score)", "setting": "[34]", "result": -0.529}, {"measurement": "glycan array binding signal (z-score)", "setting": "[35]", "result": 0.02}, {"measurement": "glycan array binding signal (z-score)", "setting": "[36]", "result": -0.31}, {"measurement": "glycan array binding signal (z-score)", "setting": "[37]", "result": -0.562}, {"measurement": "glycan array binding signal (z-score)", "setting": "[38]", "result": -0.288}]}
